# Data taken from PubChem BioAssay AID485294 (National Center for Advancing Translational Sciences (NCATS), 2010).
# Screen size: about 370,000 compounds; about 150 (0.041%) were called active. The inconclusive results got no clear call from the source; some entries with a clear call stand among them for comparison. The call rests on the fitted dose curve; in most records, active means well fitted inhibition curve with a large enough effect; inconclusive means small, poorly fitted or top-dose-only effect; inactive means flat fitted curve, though single readings scatter. No potency is given beside an inconclusive call; the fits are too rough.
# Target: Beta-lactamase (Escherichia coli (strain K12)) (UniProt P00811)
# Assay: qHTS Inhibitors of AmpC Beta-Lactamase (assay with detergent); further: nearly all actives have a fitted effect of over 25% in size
# Conditions: AmpC hydrolysis of nitrocefin, absorbance 480 nm, 0.01% Triton; series mostly up to 114 µM
# Method in brief: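 20 mM phosphate pH 7.0 + 0.01% (detergent screen) or 0.0001% Triton X-100; 5.3 nM AmpC reagent; cpd preinc 15 min RT; nitrocefin (800 uM stock) to start; A480 q20 s × 4 min; Activity was normalised to no-enzyme and no-compound control wells.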
# Potency means the concentration at half of the fitted maximal effect; tags describe the fitted curve by direction and shape.
# Sequence of UniProt P00811 (P00811 whole entry, looked up): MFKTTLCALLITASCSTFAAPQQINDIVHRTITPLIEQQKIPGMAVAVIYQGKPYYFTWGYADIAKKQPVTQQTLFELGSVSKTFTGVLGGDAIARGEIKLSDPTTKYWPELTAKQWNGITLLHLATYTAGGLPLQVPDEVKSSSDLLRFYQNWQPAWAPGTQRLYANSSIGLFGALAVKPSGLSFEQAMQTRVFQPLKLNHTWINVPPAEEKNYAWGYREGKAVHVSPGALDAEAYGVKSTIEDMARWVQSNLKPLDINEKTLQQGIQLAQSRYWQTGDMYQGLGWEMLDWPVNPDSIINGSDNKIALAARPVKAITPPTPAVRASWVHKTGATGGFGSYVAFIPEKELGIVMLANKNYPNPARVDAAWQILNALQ
row,Structure (SMILES),Potency
1,O=C(Nc1ccccc1N1CCOCC1)c1ccc2ccccc2n1,"inconclusive [inhibitor, partial curve]"
2,COc1cc(C2CC(=O)C=C(O)C2)cc(OC)c1OC (configuration not stated),"inconclusive [inhibitor, full curve, poor fit]"
3,CC(C)(C)c1ccc(S(=O)(=O)N2CCN(Cc3cc4c(cc3O)OCO4)CC2)cc1,"inconclusive [inhibitor, full curve, poor fit]"
4,CC1CCN(CC(C)CNC(=O)c2cc(-c3ccccn3)nc3ccccc23)CC1 (configuration not stated),"inconclusive [inhibitor, full curve, poor fit]"
5,Cc1c2ccccc2c(C)c2c1ccc1ccccc12,"inconclusive [inhibitor, full curve, poor fit]"
6,[O-]/[N+](=C/c1ccco1)c1ccccc1,inactive
7,CCSC1=C(C#N)C(=O)n2c1cc1c2CCCC1,"inconclusive [inhibitor, full curve, poor fit]"
8,CCOc1cc(/C=N/NC(=O)COc2ccc(Cl)cc2)ccc1OS(=O)(=O)c1ccccc1,inactive
9,Cc1ccc(Cc2nc(-c3cccnc3)no2)cc1,"inconclusive [inhibitor, full curve, poor fit]"
10,c1ccc(-c2cc(-c3nn4c(-c5ccco5)nnc4s3)c3ccccc3n2)cc1,"inconclusive [inhibitor, single point]"
11,CN(C)/C=C/C1=CC(=O)CC(C)(C)C1,"inconclusive [inhibitor, full curve, poor fit]"
12,Cc1ccc(NC(=O)CC2SC(=Nc3ccc(O)cc3)NC2=O)cc1 (configuration not stated),"inconclusive [inhibitor, single point]"
13,Cc1ccc(CNC(=O)CN2C(=O)COc3ccc(S(=O)(=O)Nc4ccccc4)cc32)cc1,inactive
14,CCOC(=O)c1[nH]c(C)c(C(=O)N(C)C)c1C,inactive
15,O=C(O)c1oc2ccccc2c1CSc1ccc(Cl)cc1,"inconclusive [inhibitor, full curve, poor fit]"
16,CC(=O)N1CCN(C(=O)c2ccc(S(=O)(=O)Nc3ccccc3Cl)cc2)CC1,"inconclusive [inhibitor, full curve, poor fit]"
17,CC(N=C(NC#N)Nc1ccncc1)C(C)(C)C (configuration not stated),"inconclusive [inhibitor, full curve, poor fit]"
18,Cc1ccc(F)c(NC(=O)/C(C#N)=C(\O)c2ccc(C(C)(C)C)cc2)c1,"inconclusive [inhibitor, full curve, poor fit]"
19,CC(NC(=O)Cc1ccccc1)C(c1ccccc1)N1CCOCC1 (configuration not stated),"inconclusive [inhibitor, full curve]"
20,CC(C)N(C(=O)NC(=O)Nc1ccccn1)S(C)(=O)=O,"inconclusive [inhibitor, single point]"
21,O=C(CSc1ccccn1)N1CCCC(Nc2ccccc2)C1 (configuration not stated),"inconclusive [inhibitor, partial curve, poor fit]"
22,CC(C)(C)C1CCc2nc(NC(=O)Cc3cn4ccsc4n3)sc2C1 (configuration not stated),inactive
23,COc1ccc2c(C)c(C(=O)O)oc2c1,"inconclusive [inhibitor, full curve, poor fit]"

row,Structure (SMILES),Potency
1,Clc1ccc(-c2nc(-c3ccccn3)no2)cc1Cl,inactive
2,CCOc1ccccc1OCCCC(=O)N1CCN(S(=O)(=O)c2ccc(Cl)cc2)CC1,inactive
3,Cc1ccc2nc3sc(C(=O)NCCCN(C)c4ccccc4)cc3cc2c1,inactive
4,CC1=[N+]([O-])C(C)(C)C(C)N(O)C1=O (configuration not stated),"inconclusive [inhibitor, full curve, poor fit]"
5,Nc1c(N(Cc2ccco2)C(=O)c2ccc(Br)cc2)c(=O)[nH]c(=O)n1Cc1ccccc1,inactive
6,O=S(=O)(c1ccc(Cl)cc1)c1nc(-c2ccco2)oc1SCc1ccc(F)cc1,"inconclusive [inhibitor, full curve, poor fit]"
7,COc1ccccc1NC(=O)CCCc1nnc2n(C)c(=O)c3sccc3n12,inactive
8,O=C(Nc1ccc2snnc2c1)N1CCSCC1,inactive
9,CCOC(=O)c1cc(S(=O)(=O)NCc2ccc(C)cc2)[nH]n1,inactive
10,Cn1cc(C(=O)NCN2CCCCC2)c2ccccc21,"inconclusive [inhibitor, partial curve, poor fit]"
11,CC1CN(C(=O)c2ccc(-c3cccc(C(F)(F)F)c3)o2)CC(C)O1 (configuration not stated),"inconclusive [inhibitor, partial curve, poor fit]"
12,OC(c1ccc(OCc2ccccc2)cc1)c1nnc(-c2ccccc2)o1 (configuration not stated),"inconclusive [inhibitor, full curve, poor fit]"
13,C/C(Cl)=C/Cc1c(C)[nH]c2c(ccc3ccccc32)c1=O,"inconclusive [inhibitor, full curve, poor fit]"
14,O=C(CSc1nc2ccccc2c(=O)[nH]1)NCc1ccc(Cl)cc1,"inconclusive [inhibitor, full curve, poor fit]"
15,COc1ccc(-c2oc(NC(=O)c3ccc(C)cc3)c(C#N)c2-c2ccc(OC)cc2)cc1,"inconclusive [inhibitor, single point]"
16,Cc1cc(C)nc(NS(=O)(=O)c2ccc(NC(=O)c3ccc(O)cc3O)cc2)n1,"inconclusive [inhibitor, partial curve, poor fit]"
17,CC(C)N(CCCNC(=O)Cn1c(=O)c2cccn2c2ccc(F)cc21)Cc1ccccc1,"inconclusive [inhibitor, full curve, poor fit]"
18,COc1ccc(C(C)=O)cc1COC(=O)c1cnc(Cl)c(Cl)c1,inactive
19,CC1(C)Oc2ccc3ccc(=O)oc3c2CC1O (configuration not stated),"inconclusive [inhibitor, partial curve]"
20,COc1ccc(OC)c(Nc2nc(C3CC3)nc3c2nnn3Cc2ccccc2)c1,"inconclusive [inhibitor, full curve, poor fit]"
21,COc1ccc2[nH]c(=O)c(CN(Cc3ccco3)C(=O)c3ccccc3)cc2c1,"inconclusive [inhibitor, partial curve, poor fit]"
22,c1ccc(OCc2nn3c(-c4ccncc4)nnc3s2)cc1,inactive
23,O=c1c2[nH]c3ccccc3c2ncn1CCCn1ccnc1,"inconclusive [inhibitor, full curve, poor fit]"

row,Structure (SMILES),Potency
1,CCOc1ccc(NC(=O)CN(C)Cc2cc(=O)n3c(-c4ccccc4)csc3n2)cc1OCC,"inconclusive [inhibitor, partial curve]"
2,COc1ccccc1/C=N/NC(=O)C1=NNC(c2ccccc2)(c2ccccc2)C1,"inconclusive [inhibitor, full curve, poor fit]"
3,CC1CCCC(NC(=O)COC(=O)COc2ccccc2Cl)C1C (configuration not stated),"inconclusive [inhibitor, partial curve, poor fit]"
4,CCCCn1c(SCC(=O)Nc2cc(NC(=O)c3ccco3)ccc2C)nc2ccccc2c1=O,"inconclusive [inhibitor, full curve, poor fit]"
5,CN(c1ccccc1)c1nc(N)c([N+](=O)[O-])c(NCc2ccco2)n1,"inconclusive [inhibitor, partial curve, poor fit]"
6,CCCCOc1ccc(C2(C)CC(=O)NC2=O)cc1 (configuration not stated),inactive
7,Cc1ccc(Cn2nc(C)cc2C(=O)Nc2ccc(Cl)cc2)cc1,inactive
8,CCCc1c(C)[nH]c2ccc(NC(C)=O)cc2c1=O,"inconclusive [inhibitor, full curve, poor fit]"
9,O=C(c1ccccc1)c1ccc(-n2ccnc2)c([N+](=O)[O-])c1,"inconclusive [inhibitor, full curve, poor fit]"
10,CCOC(=O)C1CN(S(=O)(=O)c2ccc(C)cc2)C1,"inconclusive [inhibitor, full curve, poor fit]"
11,Cc1cccc(NS(=O)(=O)Cc2ccccc2)n1,"inconclusive [inhibitor, single point]"
12,CNCc1ccccc1Sc1cc(O)ccc1O,"inconclusive [inhibitor, full curve, poor fit]"
13,c1ccc2c(c1)CCCC2NC1=NCCC1 (configuration not stated),"inconclusive [inhibitor, partial curve, poor fit]"
14,CC(C)n1cnc2c(Nc3ccc(F)c(Cl)c3)nc(NCCO)nc21,"inconclusive [inhibitor, full curve]"
15,CCC(NS(=O)(=O)c1ccc(C)cc1)C(=O)O (configuration not stated),"inconclusive [inhibitor, full curve, poor fit]"
16,O=C(CSc1nccc(-c2cccs2)n1)Nc1cccc(Cl)c1,inactive
17,COC(=O)c1ccc(NC(=O)c2ccc(CN3CCOCC3)cc2)cc1,inactive
18,COc1ccc(CCNCc2cc3ccc(C)cc3[nH]c2=O)cc1OC,"inconclusive [inhibitor, full curve, poor fit]"
19,O=C(CNc1cccc(S(=O)(=O)N2CCOCC2)c1)Nc1ccc(C(F)(F)F)cc1,"inconclusive [inhibitor, partial curve, poor fit]"
20,N#Cc1cc2c(nc1SCc1ccccc1)CCC2,"inconclusive [inhibitor, partial curve, poor fit]"
21,Cc1ccc(C(=O)OC(C)C(=O)NCc2ccc3c(c2)OCO3)cc1S(=O)(=O)N1CCOCC1 (configuration not stated),"inconclusive [inhibitor, partial curve]"
